In the assay the target is CD38 (ADP-ribosyl cyclase/cyclic ADP-ribose hydrolase 1), human (human, UniProt P28907 1-300). As to the kind of experiment: cell-based or functional assay.

Consider one molecule from patent US20220251234A1 (INSERM INSTITUT NATIONAL DE LA SANT ET DE LA RECHERCHE M …, published 2022).

Where “and” joins values, the source holds several entries; their conditions need not be identical. Identical values can stand only once.

B1: Bi38-3 (bispecific antibody, not shown: small tags and cut ends)
chain: DIQMTQSPASLSASVGETVTITCRASENIYSFLAWYQQKQGKSPQLLVYNTKTLTEGVPSRFSGSGSGTQFSLKINNLQPEDFGSYYCQHHYGIPLTFGAGTKLELKGGGGSGGGGSGGGGSQVQLQQSGAELARPGASVKLSCKASGYTFTSYWMQWVKQRPGQGLEWIGAIYPGDGDTRYTQKFKGKATLTADKSSSTAYMQLSNLTSEDSAVYYCARERTTGAPRYFDVWGAGTTVTVSSGGGGSGGGGSGGGGS[about 120 residues not shown]GGGGSGGGGSGGGGSVDDIQLTQSPAIMSASPGEKVTMTCSASSSVSYMNWYQQKSGTSPKRWIYDTSKLASGVPAHFRGSGSGTSYSLTISGMEAEDAATYYCQQWSSNPFTFGSGTKLELKAAA
Turning to B1, the “T cell-mediated killing of KMS11 target cells (luciferase), EC50” value is ~5 ng/mL and ~0.09 nM; the “T cell-mediated killing of MM1.S cells (luciferase), EC50” value worked out at 0.5 ng/mL.
